Screen size: about 310,000 compounds; about 14,000 (4.5%) showed an effect of 50% or more. Effects have a minus sign here. The list shows a part of the results.
Biological target: human ether-à-go-go-related gene (hERG) potassium channel (human, UniProt Q12809)
Assay: primary screen, population patch clamp on CHO cells stably expressing hERG
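Also: peak tail current of the secondary pulse compared with the same well before compound.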

Sequence of human ether-à-go-go-related gene (hERG) potassium channel (Q12809 whole entry, looked up): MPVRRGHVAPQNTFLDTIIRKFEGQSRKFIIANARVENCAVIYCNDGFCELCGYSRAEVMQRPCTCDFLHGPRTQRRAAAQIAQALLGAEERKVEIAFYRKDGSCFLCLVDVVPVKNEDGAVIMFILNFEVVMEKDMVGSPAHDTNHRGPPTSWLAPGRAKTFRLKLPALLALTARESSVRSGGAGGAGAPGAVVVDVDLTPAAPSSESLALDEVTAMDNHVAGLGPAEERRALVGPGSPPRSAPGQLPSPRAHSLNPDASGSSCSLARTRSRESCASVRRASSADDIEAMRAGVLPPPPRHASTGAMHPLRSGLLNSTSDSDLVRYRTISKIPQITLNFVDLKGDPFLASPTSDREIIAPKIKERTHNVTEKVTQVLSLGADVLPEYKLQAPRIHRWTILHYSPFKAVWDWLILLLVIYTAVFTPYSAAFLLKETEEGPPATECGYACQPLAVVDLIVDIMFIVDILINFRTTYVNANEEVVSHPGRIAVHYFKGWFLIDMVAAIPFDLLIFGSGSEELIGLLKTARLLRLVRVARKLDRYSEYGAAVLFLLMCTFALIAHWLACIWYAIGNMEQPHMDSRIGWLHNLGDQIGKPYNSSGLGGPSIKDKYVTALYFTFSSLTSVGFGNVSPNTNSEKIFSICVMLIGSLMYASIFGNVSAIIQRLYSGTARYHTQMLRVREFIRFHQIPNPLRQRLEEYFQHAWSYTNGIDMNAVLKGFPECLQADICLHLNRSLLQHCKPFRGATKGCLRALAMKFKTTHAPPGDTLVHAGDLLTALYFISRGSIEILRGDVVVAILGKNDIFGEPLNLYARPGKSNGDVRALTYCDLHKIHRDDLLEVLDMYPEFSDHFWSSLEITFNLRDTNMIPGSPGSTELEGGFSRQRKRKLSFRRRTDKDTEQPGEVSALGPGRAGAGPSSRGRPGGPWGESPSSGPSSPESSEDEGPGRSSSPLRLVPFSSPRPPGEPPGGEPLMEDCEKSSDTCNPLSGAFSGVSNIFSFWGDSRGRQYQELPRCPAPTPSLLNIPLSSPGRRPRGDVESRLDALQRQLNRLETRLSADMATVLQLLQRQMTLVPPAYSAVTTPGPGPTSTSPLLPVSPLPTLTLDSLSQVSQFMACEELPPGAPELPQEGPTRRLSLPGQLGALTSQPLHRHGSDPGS

Row | SMILES | hERG current change (%, negative = inhibition) at 10uM [%]
1 | Cc1ccc(-c2cc(C(=O)Nc3cccc(S(=O)(=O)N(C)C)c3)c3ccccc3n2)o1 | 13.4
2 | Cc1cccc(N2CCN(C3=NC(=O)C(=C4CCCCC4)S3)CC2)c1 | 1.64
3 | O=C(NCCN1CCOCC1)c1cc(=O)[nH]c2ccc(Br)cc12 | 7.07
4 | COC(=O)C1=C(N)Oc2cc(C)n(CC3CCCO3)c(=O)c2C1c1ccc(Cl)cc1 (stereo not drawn) | -8.41
5 | Cc1cccc(NC(=O)C2CCCN2S(=O)(=O)c2ccc(Cl)cc2)n1 (stereo not drawn) | -11.5
6 | COCCN(CCOC)C(=O)c1ccc(NS(=O)(=O)c2ccc3c(c2)OCCO3)cc1 | 10.4
7 | CC(C)(C)OC(=O)COc1cc(OCC(=O)OC(C)(C)C)c2c(=O)cc(-c3ccccc3)oc2c1 | -15
8 | COc1ccc(NC(=O)N2CCN(c3cccc(C(F)(F)F)c3)CC2)cc1 | -1.89
9 | O=C(CN1C(=O)c2ccccc2C1=O)Nc1ccc(S(=O)(=O)N2CCOCC2)cc1 | -16.9
10 | CCN(CC)S(=O)(=O)c1cccc(C(=O)Nc2cc(C)on2)c1 | 4.77
11 | Cc1ccc(S(=O)(=O)N(C)c2cc(S(=O)(=O)Nc3ccncc3)c(C)cc2C)cc1 | -2.16
12 | Cc1cc(C(=O)NNC(=O)Nc2ccccc2)no1 | 2.51
13 | CCOc1cccc(-c2nn(-c3ccccc3)cc2/C=C(/C#N)C(=O)NCCCn2ccnc2)c1 | -36.1
14 | COc1ccc(C(CNC(=O)CCNS(=O)(=O)c2ccc(C)cc2)N2CCOCC2)cc1 (stereo not drawn) | -19.3
15 | CCOC(=O)N1CCC(N2C(=O)c3ccc(C(=O)Nc4ccc(F)cc4F)cc3C2=O)CC1 | 6.75
16 | COC(=O)c1ccc(OCC(=O)NC(C)(C)C)cc1 | 8.24
17 | COc1cccc(/C=N/NC(=O)c2[nH]c(C)c(C(=O)N/N=C/c3cccc(OC)c3)c2C)c1 | -6.59
18 | COc1ccc(NC(=O)NCCC2=CCCCC2)cc1 | 8.17
19 | COc1cc(C(C)=O)ccc1OC(C)C(=O)Nc1ccc(S(=O)(=O)N2CCCC2)cc1 (stereo not drawn) | 9.66
20 | Cc1cc(F)c(F)c(C(=O)N2CCN(C)CC2)c1Cl | 18.3
21 | CCCn1c(SCC(=O)Nc2ccccc2-c2ccccc2)nnc1-c1ccoc1C | -26
22 | O=C(O)/C=C\C(=O)Nc1ccc(N2CCN(c3cccc(Cl)c3)CC2)cc1 | 10.2

Row | SMILES | hERG current change (%, negative = inhibition) at 10uM [%]
23 | COc1ccccc1Cn1c(=S)[nH]c2cc(C(=O)N3CCC(C(N)=O)CC3)ccc2c1=O | 27.4
24 | Fc1cccc(NC(=S)NC2CCCCCCC2)c1 | 15.9
25 | Cc1cccc(-n2c(O)c(/C=N/N3CCOCC3)c(=O)[nH]c2=S)c1 | -8.45
26 | Cc1ccc(/C=N/NC(=O)Cc2c(F)cccc2Cl)s1 | -4.48
27 | Cc1ccc(C(=O)N/C(=C\c2cccs2)C(=O)NCC2CCCO2)cc1C (stereo not drawn) | 6.35
28 | O=C(c1cnn(C(=O)c2ccccc2)c1)c1ccccc1O | -14.8
29 | O=C(c1ccc(-c2ccc(Cl)cc2)o1)N1CCN(S(=O)(=O)c2cccs2)CC1 | 1.39
30 | O=C(NCC(=O)N(c1ccccc1F)C(C(=O)NC1CCCC1)c1ccncc1)c1ccco1 (stereo not drawn) | 3.52
31 | S=C(Nc1ccc(-c2nc3ccccc3[nH]2)cc1)Nc1cccnc1 | -40.7
32 | O=C(Nc1ccon1)c1cccc(C(F)(F)F)c1 | 0.626
33 | Cc1nnc(SCC(=O)NCCOc2ccc(Cl)cc2)n1-c1ccccc1 | -24.7
34 | CCN1C(=O)C2(/C(=C(\O)c3ccc4c(c3)OCCO4)C(=O)C(=O)N2CCCOC)c2ccccc21 (stereo not drawn) | 22.8
35 | CCOc1ccc(CCNC(=O)COC(=O)c2cc(=O)[nH]c3ccccc23)cc1OCC | 16.1
36 | CC1CCCC(NC(=O)C2CCN(S(=O)(=O)N3CCC4(CC3)OCCO4)CC2)C1C (stereo not drawn) | -1.96
37 | Nc1nc(-c2ccc3c(c2)CCC(=O)N3)cs1 | 16.5
38 | COc1cc(CNC(C)C)ccc1OCC(=O)Nc1cccc2ccccc12 | -27.2
39 | Cc1ccc(-c2nnc(Nc3ccc4c(c3)OCO4)c3ccccc23)cc1S(N)(=O)=O | -9.69
40 | Cc1ccc(NC(=O)C2=C(O)c3ccccc3N(C)S2(=O)=O)cc1 | 13.4
41 | O=C(NCc1ccccc1)c1onc(CSc2ccc(F)c(F)c2)c1C(=O)NCc1ccccc1 | 3.32
42 | CCOC(=O)C1CCN(Cc2ccc(OCc3ccccc3)cc2)CC1.O=C(O)C(=O)O | -62
43 | COc1ccc(Nc2nnc(SCC(=O)c3cc4ccccc4o3)s2)cc1 | 10.3
44 | CCCc1cc(=O)oc2cc(OCC(=O)NCCCn3ccnc3)ccc12 | -47.1

Row | SMILES | hERG current change (%, negative = inhibition) at 10uM [%]
45 | CCS(=O)(=O)NCc1nnc2n1-c1ccc(Cl)cc1C(c1ccccc1)=NC2 | 12.6
46 | O=C(O)C1Nc2c(O)cccc2C2C=CCC12 (stereo not drawn) | 10.7
47 | Cc1nc(CNS(=O)(=O)c2ccc3c(c2)CCCC3)cs1 | -2.85
48 | Cc1ccc2oc(=O)n(CC(=O)O)c2c1 | 23.8
49 | CCN(CC)c1ccc(C(=O)N/N=C/c2ccc(N3CCOCC3)cc2)cc1 | 14.9
50 | CCc1ccc(C(=O)OCC(=O)N(CC)c2c(N)n(Cc3ccccc3)c(=O)[nH]c2=O)cc1 | 18.7
51 | Cc1ccc(CNC(=O)CCc2c(C)[nH]c(=O)c(C#N)c2C)cc1 | 12.6
52 | COC(=O)c1ccc(CN2C(=O)NC3(CCC(C)CC3)C2=O)o1 (stereo not drawn) | -14.2
53 | CC1(C)CC(N2CCCCC2)=CC(=[N+]2CCCCC2)C1.[I-] | 8.09
54 | CNC(=O)NC(=O)C(C)OC(=O)c1ccc(Cl)c(S(=O)(=O)Nc2ccc(F)cc2)c1 (stereo not drawn) | 8.39
55 | [O-][n+]1ccccc1SC/C=C/c1ccccc1 | 0.271
56 | O=S(=O)(Nc1ccc(Cc2ccncc2)cc1)c1ccc(Br)s1 | -13.1
57 | CCOc1cccc(CNCc2ccc(C(=O)O)cc2)c1.Cl | 23.7
58 | COc1ccc(-n2c(SCC(=O)N(C)c3ccccc3)nc3c([nH]c4ccccc43)c2=O)cc1OC | 7.61
59 | COc1cc(Cl)c(C)cc1NC(=O)CN1CCCCCC1 | -0.067
60 | Nc1nc(SC23CC4CC(CC(C4)C2)C3)ns1 | 10.3
61 | Cc1cccc(C(=O)Nc2ccc(O)cc2)c1 | 12.6
62 | CCN1CCN(C(=O)c2cc3c(s2)-c2c(C)cccc2OC3)CC1 | -17.8
63 | CCOC(=O)C(CC(C)C)CP(=O)(O)CNC(=O)OCc1ccccc1 (stereo not drawn) | 12.9
64 | Cl.ClCCN1CCN(c2ccnc3cc(Cl)ccc23)CC1 | -20.8
65 | CCN(C(=O)COC(=O)c1cc([N+](=O)[O-])ccc1N1CCCCC1)C1CCS(=O)(=O)C1 (stereo not drawn) | 0.233
66 | COCCOC(=O)c1c(C)oc2ccc(O)c(CN3CCC(C)CC3)c12 | -29.8

Row | SMILES | hERG current change (%, negative = inhibition) at 10uM [%]
67 | Cc1ccc(Nc2c(F)c(F)c(F)c(F)c2C(=O)O)c(C)c1 | 13.1
68 | COc1ccc(CCNC(=O)CSc2nnc3ccc(-c4ccncc4)nn23)cc1 | -20.7
69 | CN(CC(=O)N1CCc2ccccc21)S(=O)(=O)c1cccs1 | -22
70 | O=C(NCc1ccc2c(c1)OCO2)C1CCN(S(=O)(=O)c2ccc(F)cc2)CC1 | 5.43
71 | Nc1ccccc1SC1CC(=O)N(Cc2ccccc2)C1=O (stereo not drawn) | 0.456
72 | Cc1ccccc1N/C(SCc1cccc(Br)c1)=C(/C#N)C(N)=O | 20.5
73 | CCOC(=O)/C=c1\s/c(=C\c2ccccc2C)c(=O)n1CC(=O)NCc1ccc2c(c1)OCO2 | -1.42
74 | COc1cc(N2CCCC2)c(OC)cc1/C=C(/C#N)c1ccc(F)cc1 | 24.5
75 | CN(C)CCNC(=O)c1cc(Br)ccc1Cl | 3.14
76 | Cc1csc(SCCn2c(N3CCN(c4ccccc4)CC3)nc3c2c(=O)[nH]c(=O)n3C)n1 | -3.59
77 | O=C(CSc1nc2ccccc2o1)c1ccccc1 | 2.21
78 | CNC(=S)N(Cc1cc2cc(C)ccc2n2nnnc12)CC(C)(C)CN(C)C | 24.1
79 | Cc1ccc(NC(=O)CSCC(=O)Nc2ccccc2N2CCCCC2)cc1 | -11.3
80 | COc1ccc(C(=O)c2oc3ccccc3c2N)cc1 | 3.86
81 | O=C(NCCCO)/C(=C\c1ccco1)NC(=O)c1ccc(Br)o1 | -1.83
82 | CNC(=O)N(O)C1N(NC(=O)Nc2ccccc2)C(=S)SC1(C)C (stereo not drawn) | 5.86
83 | O=C(NC1CCSC1=O)C1CCCCC1 (stereo not drawn) | 5.49
84 | Cl.N=c1sccn1CC(=O)Nc1ccc(S(=O)(=O)N2CCOCC2)cc1 | -5.32
85 | O=C(COc1cc(Cl)c(Cl)cc1Cl)Nc1ccncc1 | -10.7
86 | CC1(C)CC(C(=O)NCCC(c2ccccc2)c2ccco2)CCO1 (stereo not drawn) | -9.31
87 | c1ccc2sc(Sc3ncnc4sccc34)nc2c1 | 15

— paper PMC4336329 (PLoS ONE, 2015)
